{
  "source": "the antibiotic and cytotoxicity screens of Wong et al. (2023)",
  "note": "The list shows a part of the results.",
  "data": [
    {"tested_on": "HepG2", "experiment": "cytotoxicity call (relative viability < 0.9)", "details": "10 µM", "values": [
      {"molecule": "C[C@@H]1CN([C@H](C)CO)C(=O)Cc2cc(NS(=O)(=O)c3ccc(F)cc3)ccc2O[C@@H]1CN(C)Cc1ccc(Oc2ccccc2)cc1", "cytotoxicity call": "active"},
      {"molecule": "CN(C)CC(=O)N1[C@@H]2c3ccc(-c4ccccc4)c(=O)n3C[C@H]1[C@H](CO)[C@H]2C(=O)N1CCN(C)CC1", "cytotoxicity call": "inactive"},
      {"molecule": "O=C(CN1CCOCC1)NCC[C@H]1CC[C@H](NC(=O)c2ccc3c(c2)OCO3)[C@H](CO)O1", "cytotoxicity call": "inactive"},
      {"molecule": "COc1ccc(NC(=O)Nc2ccc3c(c2)CC(=O)N([C@@H](C)CO)C[C@@H](C)[C@@H](CN(C)Cc2ccc(C(F)(F)F)cc2)O3)cc1", "cytotoxicity call": "active"},
      {"molecule": "C[C@@H]1CN([C@H](C)CO)C(=O)c2cc(NS(=O)(=O)c3cccs3)ccc2O[C@@H]1CN(C)S(=O)(=O)c1ccc(F)cc1", "cytotoxicity call": "inactive"},
      {"molecule": "C[C@@H]1CN([C@@H](C)CO)C(=O)c2cccc(NC(=O)Nc3ccc(C(F)(F)F)cc3)c2O[C@@H]1CN(C)Cc1ccccc1", "cytotoxicity call": "inactive"},
      {"molecule": "CCCC(=O)Nc1ccc(OCC(O)CNC(C)C)c(C(C)=O)c1.Cl", "note": "(configuration not stated)", "cytotoxicity call": "inactive"},
      {"molecule": "C[C@@H]1CN([C@H](C)CO)C(=O)c2c(c3ccccc3n2C)-c2ccccc2CO[C@H]1CN(C)Cc1cccc(O)c1", "cytotoxicity call": "inactive"},
      {"molecule": "Cc1occc1C(=O)NNC(=O)C1CC1", "cytotoxicity call": "inactive"},
      {"molecule": "C[C@@H]1CCCCO[C@H](CN(C)S(=O)(=O)c2ccc(F)cc2)[C@@H](C)CN([C@@H](C)CO)C(=O)c2cc(NC(=O)C3CCCCC3)ccc2O1", "cytotoxicity call": "inactive"},
      {"molecule": "C[C@@H]1CN([C@@H](C)CO)C(=O)c2cc(NC(=O)Nc3ccc4c(c3)OCO4)ccc2O[C@@H]1CN(C)Cc1ccc(-c2ccccc2)cc1", "cytotoxicity call": "active"},
      {"molecule": "Cc1ccc(S(=O)(=O)N[C@@H](Cc2ccccc2)C(=O)NCCn2cc(-c3ccccc3N)nn2)cc1", "cytotoxicity call": "inactive"},
      {"molecule": "COCC(=O)N1CC[C@]2(CC1)CN(Cc1cccc(c1)OC)[C@@H](CO)c1c2c2ccc(cc2n1C)OC", "cytotoxicity call": "inactive"},
      {"molecule": "COCC(=O)Nc1ccc2c(c1)OC[C@@H](C)N(Cc1cccc(F)c1)C[C@H](C)[C@H](OC)CN(C)C2=O", "cytotoxicity call": "inactive"},
      {"molecule": "C[C@H](CO)N1C[C@H](C)[C@@H](CN(C)Cc2ccc(C(F)(F)F)cc2)OCCCC[C@H](C)Oc2ccc(NC(=O)Nc3ccccc3)cc2C1=O", "cytotoxicity call": "active"},
      {"molecule": "C[C@H](CO)N1C[C@H](C)[C@H](CN(C)Cc2ccc(C(=O)Nc3ccccc3N)cc2)Oc2ccc(NC(=O)Cc3cn(C)c4ccccc34)cc2C1=O", "cytotoxicity call": "inactive"},
      {"molecule": "OCc1cn(-c2ccccc2)nn1", "cytotoxicity call": "inactive"},
      {"molecule": "COc1oc(C(=O)NC2CCCCC2)c(-c2ccc(Cl)cc2)c1S(=O)(=O)/C=C/c1ccccc1", "cytotoxicity call": "inactive"},
      {"molecule": "C[C@@H]1CN([C@@H](C)CO)C(=O)CCCn2cc(nn2)CO[C@@H]1CN(C)C(=O)Nc1ccc(C(C)(C)C)cc1", "cytotoxicity call": "inactive"},
      {"molecule": "COC(=O)C[C@@H]1CC[C@H]2[C@@H](COC[C@H](O)CN2S(=O)(=O)c2ccc(F)cc2)O1", "cytotoxicity call": "inactive"},
      {"molecule": "COc1ccc(CN(C)C[C@H]2OCCCC[C@@H](C)Oc3ccc(NC(=O)C4CCCCC4)cc3C(=O)N([C@H](C)CO)C[C@H]2C)cc1", "cytotoxicity call": "inactive"},
      {"molecule": "COc1ccc(NC(=O)Nc2ccc3c(c2)C(=O)N([C@H](C)CO)C[C@H](C)[C@@H](CN(C)C(=O)NC(C)C)OCCCC[C@H](C)O3)cc1", "cytotoxicity call": "inactive"},
      {"molecule": "CCOc1ccc(-n2c([C@@H](C)N(Cc3cccnc3)C(=O)Cc3ccc(F)c(C(F)(F)F)c3)nc3ncccc3c2=O)cc1", "cytotoxicity call": "inactive"},
      {"molecule": "CN(C)Cc1cn(CC[C@@H]2CC[C@H](N)[C@@H](CO)O2)nn1", "cytotoxicity call": "inactive"},
      {"molecule": "CN(C)C1C(O)=C(C(N)=O)C(=O)C2(O)C(O)=C3C(=O)c4c(O)cccc4C(C)(O)C3CC12.Cl", "note": "(configuration not stated)", "cytotoxicity call": "inactive"},
      {"molecule": "CN1C(=O)c2cc(NC(=O)c3cscn3)ccc2OC[C@H]2O[C@H](CC(=O)N3CCOCC3)CC[C@@H]21", "cytotoxicity call": "inactive"},
      {"molecule": "COc1ccc(-c2cnc3c(c2)C(=O)N([C@H](C)CO)C[C@H](C)[C@H](CN(C)S(=O)(=O)c2cccs2)O3)cc1", "cytotoxicity call": "inactive"},
      {"molecule": "CN1CCC(N(C)C(=O)COc2ccc(S(=O)(=O)N3CCOCC3)cc2)CC1", "cytotoxicity call": "inactive"},
      {"molecule": "Nc1ccn(C2CCC(CO)O2)c(=O)n1", "note": "(configuration not stated)", "cytotoxicity call": "inactive"},
      {"molecule": "C(=N\\n1cnnc1)/c1ccccn1", "cytotoxicity call": "inactive"},
      {"molecule": "C[C@@H]1CCCCO[C@@H](CN(C)C(=O)C2CCCCC2)[C@H](C)CN([C@@H](C)CO)C(=O)c2cc(NC(=O)Nc3ccc(C(F)(F)F)cc3)ccc2O1", "cytotoxicity call": "active"},
      {"molecule": "C[C@H]1CN([C@@H](C)CO)C(=O)Cc2cc(NC(=O)Cn3cnnn3)ccc2O[C@H]1CN(C)Cc1ccc(Oc2ccccc2)cc1", "cytotoxicity call": "inactive"}
    ]}
  ]
}
